The supplement of paper PMC9513381
Recombinant human monoclonal antibodies (heavy:light variable regions). ELISA EC50 on the named antigen, from 10 µg/ml down; IC50 / IC90 against spike pseudovirus on 293T-ACE2 cells, 48 h; lower = stronger. Calls: IC50 above 1,000 ng/ml = non-neutralizing; EC50 above 1,000 ng/ml = non-binder. The source prints 1000 for neutralization that was not reached; it is given as >1000 ng/ml. Only binders of the Wuhan-Hu-1 domain have neutralization values.

B1: B2120 (protein)
chain 1: QLQLQESGPGLVKPSETLSLTCTVSGGSVSSYLYYWGWIRQPPGKGLEWIGTIFYSGTTYYNVSLKRRGTISIDTSKNQFSLRLSSVTAADTAVYYCARLGGSIGPHLAAAGTPDYWGQGTLVTVSS
chain 2: IRMTQSPSSLSASVGDRVTITCQASQDISNYLNWYQQKPGKAPKLLIYDASNLETGVPSRFSGSGSGTDFTFTISSLQREDVATYYCQQYDNLPLTFGGGTKVEIK
B2: B2121 (protein)
chain 1: QLQLQESGPGLVKPSETLSLTCSLSGGSISSSSYYWGWIRQPPGKGLEWIGGIYYSANTLYNPSLKSRVSISVDTSKNQFSLKVRSVTAADTAVYYCARFHCTTNRCYGDDWYFDLWGRGTLVTVSS
chain 2: SYELTQPPLVSVSPGQTARITCSGDAFPNQYAYWYQQKSGQAPVLVIYKDSERPSGIPERFSGSSSGATVTLTISGVQAEDEADYYCQTADSRGTLFGGGTKLTVL
B3: B2122 (protein)
chain 1: VQLVESGGGVVQPGRSLRLSCAASGFTFSDYGMHWVRQAPGKGLEWLAVISSDGSLKYFDDSVKGRFTISRDNSKNTLYLQMNSLRVEDTAVYYCAKDRDLESFLLLDYWGQGTLVTVSS
chain 2: DIQLTQSPSSLSASVGDRVTITCRASQSIATYLNWYQQKPGKAPKLLIYAASSLQSGVPSRFSGSGSGRDFTLTISGLQREDFATYYCQQSYSTPPITFGQGTRLEIK
B4: B2123 (protein)
chain 1: QLVQSGPEIKKPGTSVKVSCKASGFTFSNSAVQWVRQARGQHLEWIGWIVVGSGDPNYAQKFQERVTLTRDMSTGTAYMELSSLRSEDTAFYYCATNNCSRTICSDGFDIWGQGTMVTVSS
chain 2: DIQLTQSPSSLSASVGDRVTITCRASQSIRSYLNWYQQKPGKAPKLLIYVASSLQTGVPSRFSGSGSGTEFTLTISSLQPEDFATYYCQQSYSTPPWTFGQGTKVEIK
B5: B2124 (protein)
chain 1: EVQLVQSGAVVKKPGESLKISCQGSGYSFPYYWIGWVRQMPGKGLEYMGVVYPSDSDTKYSPSFQGQVTISADKSISTAYLQWNGLKASDTAMYYCARIDPHDCSGGACFPAGFDPWGQGTLVTVSS
chain 2: DIQMTQSPSSLSASVGDRVTITCQASQDIGNYLNWYQQKPGKAPKLLIYDASNLETGVPSRFSGSGSGTDFTFTISSLQPEDIATYYCQQYDNLLLTFGPGTKVDIK
B6: B2126 (protein)
chain 1: QVQLQESGPGLVKPSQTLSLTCTVSGASISNGGYYWSWIRQHRGQGLEWIGYIYYSGDTYYNPSLKSRLIMSVDTSKNQFSLELSSVTAADTALYYCARIRTPLTRDTEGEHAFDMWGQGTMVTVSS
chain 2: DIQLTQSPSSLSASVGDRVTITCRASQSISSYLNWYQQKPGKAPKLLIYAASSLESGVPSRFSGSGSGTEFTLTISSLQREDFATYYCQQSHSILFTFGQGTRLEIK
B7: B2015 (protein)
chain 1: QVQLVQSGAEVKKPGSSVKVSCKASGGTLSSTAISWVRQAPGQGPEWMGRIIPIFGTTDYAPNFQGRVTITADESTSTVYMELSSLRFQDTALYYCARDHETAPLYGMDVWGQGTTVTVSS
chain 2: DIQLTQSPSSLSASVGDRVTITCRASQSISRFLNWYQQKPGKAPELLIYATSTLQDGVPPRFSGSGSGTDFTLTISSLQPEDFATYYCQQSYSIPPITFGQGTRLEIK

Each binder was assayed against SARS-CoV-2 Wuhan-Hu-1 spike pseudovirus (assay: pseudovirus neutralization IC50; higher = weaker neutralization).
Protocol: (§1)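 Single-round luciferase reporter pseudovirus mixed with antibody dilutions and put on 293T-ACE2 cells for 48 h; signal relative to no-antibody wells, four-parameter fit.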

| Binder | pseudovirus neutralization IC50 [µg/mL] |
| --- | --- |
| B1 | > 1 |
| B2 | > 1 |
| B3 | 0.67 |
| B4 | > 1 |
| B5 | 0.0104 |
| B6 | 0.00599 |
| B7 | 0.124 |

The binders below were run against SARS-CoV-2 Wuhan-Hu-1 spike pseudovirus (assay: pseudovirus neutralization IC90; higher = weaker neutralization).
Protocol: as §1

| Binder | pseudovirus neutralization IC90 [µg/mL] |
| --- | --- |
| B1 | > 1 |
| B2 | > 1 |
| B3 | > 1 |
| B4 | > 1 |
| B5 | 0.395 |
| B6 | 0.0303 |
| B7 | > 1 |

What follows are binders tested against SARS-CoV-2 Delta (B.1.617.2) spike RBD (assay: ELISA binding EC50; higher = weaker binding; ELISA of recombinant human antibody on coated antigen, from 10 µg/ml in fourfold dilutions; four-parameter fit.).

| Binder | ELISA binding EC50 [µg/mL] |
| --- | --- |
| B1 | 0.0136 |
| B2 | 0.00711 |
| B3 | 0.0228 |
| B4 | > 1 |
| B5 | 0.0103 |
| B6 | 0.00261 |
| B7 | 0.00589 |

Each binder was assayed against SARS-CoV-2 Omicron BA.1 spike protein in the same assay as above.

| Binder | ELISA binding EC50 [µg/mL] |
| --- | --- |
| B1 | 0.00536 |
| B2 | 0.119 |
| B3 | 0.0931 |
| B4 | > 1 |
| B5 | 0.0117 |
| B6 | 0.048 |
| B7 | 0.00575 |

What follows are binders tested against SARS-CoV-2 Wuhan-Hu-1 spike receptor-binding domain in the same assay as above.

| Binder | ELISA binding EC50 [µg/mL] |
| --- | --- |
| B1 | 0.00412 |
| B2 | 0.0023 |
| B3 | 0.00132 |
| B4 | 0.0122 |
| B5 | 0.00249 |
| B6 | 0.0025 |
| B7 | 0.00378 |
